# Measurements from PubChem BioAssay (Tox21).
# Where “and” joins values, the source holds several entries; their conditions need not be identical. Equal entries are not always repeated. The shares of active, inactive and inconclusive entries below differ from those in the screen. Where the call is inconclusive, the potency comes from a doubtful curve fit. Calls of active or inactive are those of the source. The call rests on the fitted dose curve; in most records, active means well fitted cell-killing curve with a large enough effect in the repeat runs; inconclusive means weak or mixed curves, or effect the other way; inactive means flat fitted curve, though single readings scatter.
# Experiment: Human pregnane X receptor (PXR) small molecule agonists, qHTS cell viability counter screen (AID 1346977); further: nearly all actives have a fitted effect of over 50% in size
# Details: PXR-Luc HepG2 viability, CellTiter-Fluor, 24 h; series mostly up to 92.4 µM
# From the text: U.S. Tox21 Program National Center for Advancing Translational Sciences [NCATS] NIH Chemical Genomics Center [NCGC] U.S. Environmental Protection Agency [EPA] National Institutes of Environmental Health Sciences [NIEHS] National Toxicology Program [NTP] U.S. Food and Drug Administration [FDA] Tox21 Assay Overview: The human pregnane X receptor (hPXR) regulates the expression of several drug metabolizing enzymes and induction of these proteins is a major mechanism for developing drug resistance in cancer. One such key enzyme catalyzing the drug metabolism is cytochrome P450 3A4 (CYP3A4). Changes in CYP3A4 expression affect drug metabolism, thereby reducing the therapeutic efficacy and altering toxicological response to a drug and which finally causes adverse drug interaction. To screen Tox21 libraries for compounds that activate hPXR-mediated CYP3A4 gene expression, PXR-Luc HepG2 cells were used. Also cytotoxicity of the compounds was tested in parallel by measuring the cell viability using CellTiter-Fluor assay system in the same wells.
# Tox21 Assay Protocol Summary: PXR-Luc HepG2 cells were dispensed at 2,000 per well in 5uL of assay medium containing 5% charcoal-stripped FBS into white solid bottom 1536-well plates (Corning Life Sciences, Corning, NY) using a Multidrop Combi (Thermo Scientific, Waltham, MA) dispenser. The assay plates were incubated at 37 C and 5% CO2 for 5hr, and then 23nL of compounds dissolved in DMSO and positive control were transferred using a Pintool station (Wako, San Diego, CA). The assay plates were incubated at 37C and 5% CO2 for 24hr. For cytotoxicity read, after 23hr incubation at 37C, 1uL CellTiter-Fluor reagent (Promega Corporation, Madison, WI) was added to each well of the assay plates using Flying Reagent Dispenser (FRD, Aurora Discovery, San Diego, CA). After 1hr incubation at 37C and 5% CO2, the fluorescence signal was quantified using a ViewLux plate reader (PerkinElmer, Shelton, CT).
# On the % scale 0 is the no-effect control and ±100 the full control effect; potency means the concentration at half of the fitted maximal effect; tags describe the fitted curve by direction and shape.
row,Compound,Potency
1,CCCCCCCCCCCCN1CCCC1=O,inconclusive: 68.6 µM [cytotoxic]
2,CC[C@H](c1ccc(O)cc1)[C@@H](CC)c1ccc(O)cc1,inconclusive: 61.1 µM [cytotoxic]
3,CC[C@@]1(O)C(=O)OCc2c1cc1n(c2=O)Cc2c-1nc1ccccc1c2/C=N/OC(C)(C)C,active: 0.237 µM
4,CS(=O)(=O)CCNCc1ccc(-c2ccc3ncnc(Nc4ccc(OCc5cccc(F)c5)c(Cl)c4)c3c2)o1,active: 26.6 µM
5,CC(C)OC(=O)C(C)(C)Oc1ccc(C(=O)c2ccc(Cl)cc2)cc1,"inconclusive: 68.6 µM [cytotoxic, single point]"
6,O=c1cc(-c2ccccc2)oc2ccccc12,"inconclusive: 68.2 µM [cytotoxic, partial curve, poor fit]"
7,Cc1c2ccccc2c(C)c2c1ccc1ccccc12,"inconclusive: 7.62 µM [cytotoxic, full curve] and active: 61.1 µM"
8,C=C(c1ccc(C(=O)O)cc1)c1cc2c(cc1C)C(C)(C)CCC2(C)C,"inconclusive: 68.6 µM [cytotoxic, single point]"
9,CC1CCCNC1 (stereo not given),inconclusive: 67.1 µM [cytotoxic]
10,Clc1nc(C(Cl)(Cl)Cl)c(Cl)c(Cl)c1Cl,"inconclusive: 61.1 µM [cytotoxic, single point]"
11,O=C1c2c(O)ccc([N+](=O)[O-])c2C(=O)c2c([N+](=O)[O-])ccc(O)c21,active: 13.6 µM
12,C#CC1(O)CC[C@H]2[C@@H]3CCC4=CCCC[C@@H]4[C@H]3CC[C@@]21C (stereo not given in full),"inconclusive: 68.6 µM [cytotoxic] and inconclusive: 33.5 µM [cytotoxic, single point]"
13,CCCOc1sc(C(=O)N2CCC(c3cc(CN)ccc3F)CC2)c(C)c1Br,active: 28.1 µM
14,COc1cc([C@@H]2c3cc4c(cc3[C@@H](O[C@@H]3O[C@@H]5CO[C@@H](C)O[C@H]5[C@H](O)[C@H]3O)[C@H]3COC(=O)[C@H]23)OCO4)cc(OC)c1O,inconclusive: 53.9 µM [cytotoxic]
15,CN(C[C@@H](CC[N+]12CCC(C3CCCCC3)(CC1)CC2)c1ccc(Cl)c(Cl)c1)C(=O)c1cc(C(F)(F)F)cc(C(F)(F)F)c1,inconclusive: 61.1 µM [cytotoxic]
16,COc1ccc(-n2nc(CCC(=O)N(C)O)cc2-c2ccc(Cl)cc2)cc1,"inconclusive: 29.8 µM [cytotoxic, single point]"
17,CCOC(=O)C1=C(C)NC(C)=C(C(=O)OCC)C1c1ccccc1/C=C/C(=O)OC(C)(C)C,"inconclusive: 33.5 µM [cytotoxic, single point]"
18,Cc1c(C)c2c(c(C)c1O)CCC(C)(COc1ccc(CC3SC(=O)NC3=O)cc1)O2 (stereo not given),inconclusive: 61.1 µM [cytotoxic]
19,Nc1ccc(Nc2ccccc2)cc1,active: 30.3 µM and active: 39.8 µM and active: 30.6 µM
20,CN1CCC[C@@H]1CCO[C@](C)(c1ccccc1)c1ccc(Cl)cc1,active: 21.1 µM

row,Compound,Potency
1,O=C(O)c1ccc(S(=O)(=O)N(Cl)Cl)cc1,"inconclusive: 48.9 µM [cytotoxic, partial curve]"
2,CCCCCCCCOC(=O)c1cc(O)c(O)c(O)c1,"inconclusive: 68.6 µM [cytotoxic, single point]"
3,CC[C@H](C)C(=O)O[C@H]1C[C@@H](C)C=C2C=C[C@H](C)[C@H](CC[C@@H]3C[C@@H](O)CC(=O)O3)[C@H]21,"inconclusive: 79.4 µM [cytotoxic, single point] and inactive"
4,O=C(COc1ccc(Cl)cc1)N1CCN(Cc2ccc3c(c2)OCO3)CC1,"inconclusive: 54.5 µM [cytotoxic, partial curve]"
5,Clc1ccc(C(Cn2ccnc2)OCc2c(Cl)cccc2Cl)c(Cl)c1 (stereo not given),active: 23.7 µM
6,O=C(OC[C@H]1O[C@@H](OC(=O)c2cc(O)c(O)c(OC(=O)c3cc(O)c(O)c(O)c3)c2)[C@H](OC(=O)c2cc(O)c(O)c(OC(=O)c3cc(O)c(O)c(O)c3)c2)[C@@H](OC(=O)c2cc(O)c(O)c(OC(=O)c3cc(O)c(O)c(O)c3)c2)[C@@H]1OC(=O)c1cc(O)c(O)c(OC(=O)c2cc(O)c(O)c(O)c2)c1)c1cc(O)c(O)c(OC(=O)c2cc(O)c(O)c(O)c2)c1,"inconclusive: 14.7 µM [cytotoxic, partial curve]"
7,CCC(C)Nc1ccc(NC(C)CC)cc1 (stereo not given),active: 12.4 µM
8,Cc1cc(O)c(C(C)(C)C)cc1Sc1cc(C(C)(C)C)c(O)cc1C,active: 13.7 µM
9,CC[C@]12CCCN3CCc4c(n(c5ccccc45)[C@@](O)(C(=O)OC)C1)[C@@H]32,"inconclusive: 68.6 µM [cytotoxic, single point]"
10,NCc1cccc(CN)c1,inactive
11,N/C(=N\N=C\c1ccc(Cl)cc1)N/N=C/c1ccc(Cl)cc1,"inconclusive: 33.5 µM [cytotoxic, single point]"
12,C=C1C(C)(C)[C@@]2(Cl)C(Cl)[C@]1(Cl)C(Cl)(Cl)C2(Cl)Cl (stereo not given in full),"inconclusive: 67.3 µM [cytotoxic, single point]"
13,O=C1OC(=O)c2cc(-c3ccc4c(c3)C(=O)OC4=O)ccc21,"inconclusive: 61.1 µM [cytotoxic, single point]"
14,CC(=O)OC/C=C(C)/C=C/C=C(C)/C=C/C1=C(C)CCCC1(C)C,"inconclusive: 70.8 µM [cytotoxic, single point]"
15,O=c1c(O)c(-c2ccc(O)cc2)oc2cc(O)cc(O)c12,"inconclusive: 54.3 µM [cytotoxic, partial curve] and inconclusive: 32.8 µM [cytotoxic, partial curve, poor fit]"
16,Nc1ccc(N)c2ccccc12,active: 24.3 µM
17,Cc1cc(C(C)(C)C)c(O)c(C(C)(C)C)c1,inactive
18,BrC1CCC(Br)C(Br)CCC(Br)C(Br)CCC1Br (stereo not given),"inconclusive: 70.8 µM [cytotoxic, single point] and inconclusive: 58 µM [cytotoxic, single point]"
19,CN(C)c1ccc(C(=C2C=CC(=[N+](C)C)C=C2)c2ccccc2)cc1,active: 2.37 µM [middle of 4 runs]
20,O=S1(=O)CC(Cl)(Cl)C(Cl)(Cl)C1,active: 2.73 µM
